Data published in the supplement of paper PMC8728848.
Some of the results follow.

How the values were obtained:
Experiment in all cases: glycan array binding signal (z-score within array); higher = stronger binding
Conditions in all cases: glycan notation: IUPAC condensed, linker removed
[1] = target: Man(a1-2)Man(a1-3)[Man(a1-2)Man(a1-6)]Man
How it was run: (§1)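 The binding signal is a Z-score computed within each array. Data were drawn from 3228 arrays in the Consortium for Functional Glycomics database, restricted to those with a known protein sequence. Scores were averaged over arrays of the same protein sequence at different concentrations or buffers, and over linkers, and negative values can be taken as non-binding.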

[2] = target: Man(a1-2)Man(a1-3)[Man(a1-2)Man(a1-6)]Man(a1-6)[Man(a1-2)Man(a1-2)Man(a1-3)]Man
How it was run: as §1

[3] = target: Man(a1-2)Man(a1-3)[Man(a1-2)Man(a1-6)]Man(a1-6)[Man(a1-2)Man(a1-2)Man(a1-3)]Man(b1-4)GlcNAc(b1-4)GlcNAc
How it was run: as §1

[4] = target: Man(a1-2)Man(a1-3)[Man(a1-6)]Man(a1-6)[Man(a1-2)Man(a1-3)]Man(b1-4)GlcNAc(b1-4)GlcNAc
How it was run: as §1

[5] = target: Man(a1-2)Man(a1-6)[Man(a1-3)]Man(a1-6)[Man(a1-2)Man(a1-2)Man(a1-3)]Man
How it was run: as §1

[6] = target: Man(a1-2)Man(a1-6)[Man(a1-3)]Man(a1-6)[Man(a1-2)Man(a1-2)Man(a1-3)]Man(b1-4)GlcNAc(b1-4)GlcNAc
How it was run: as §1

[7] = target: Man(a1-3)[Man(a1-6)]Man
How it was run: as §1

[8] = target: Man(a1-3)[Man(a1-6)]Man(a1-6)[Man(a1-2)Man(a1-3)]Man(b1-4)GlcNAc(b1-4)GlcNAc
How it was run: as §1

[9] = target: Man(a1-3)[Man(a1-6)]Man(a1-6)[Man(a1-3)]Man
How it was run: as §1

[10] = target: Man(a1-3)[Man(a1-6)]Man(a1-6)[Man(a1-3)]Man(b1-4)GlcNAc(b1-4)GlcNAc
How it was run: as §1

[11] = target: Man(a1-3)[Man(a1-6)]Man(b1-4)GlcNAc(b1-4)GlcNAc
How it was run: as §1

[12] = target: Man(a1-3)[Man(a1-6)]Man(b1-4)GlcNAc(b1-4)[Fuc(a1-6)]GlcNAc
How it was run: as §1

[13] = target: Man(a1-6)Man
How it was run: as §1

[14] = target: Man(b1-4)GlcNAc
How it was run: as §1

[15] = target: MurNAc(b1-4)GlcNAc
How it was run: as §1

[16] = target: Neu5Ac(a2-3)Gal
How it was run: as §1

[17] = target: Neu5Ac(a2-3)Gal(b1-3)GalNAc
How it was run: as §1

[18] = target: Neu5Ac(a2-3)Gal(b1-3)GalNAc(b1-3)Gal(a1-4)Gal(b1-4)Glc
How it was run: as §1

[19] = target: Neu5Ac(a2-3)Gal(b1-3)GalNAc(b1-4)[Neu5Ac(a2-3)]Gal(b1-4)Glc
How it was run: as §1

[20] = target: Neu5Ac(a2-3)Gal(b1-3)GalNAc(b1-4)[Neu5Ac(a2-8)Neu5Ac(a2-3)]Gal(b1-4)Glc
How it was run: as §1

[21] = target: Neu5Ac(a2-3)Gal(b1-3)GalNAc6S
How it was run: as §1

[22] = target: Neu5Ac(a2-3)Gal(b1-3)GlcNAc
How it was run: as §1

[23] = target: Neu5Ac(a2-3)Gal(b1-3)GlcNAc(b1-2)Man
How it was run: as §1

[24] = target: Neu5Ac(a2-3)Gal(b1-3)GlcNAc(b1-2)Man(a1-3)[GlcNAc(b1-4)][Neu5Ac(a2-3)Gal(b1-3)GlcNAc(b1-2)Man(a1-6)]Man(b1-4)GlcNAc(b1-4)GlcNAc
How it was run: as §1

[25] = target: Neu5Ac(a2-3)Gal(b1-3)GlcNAc(b1-2)Man(a1-3)[Neu5Ac(a2-3)Gal(b1-3)GlcNAc(b1-2)Man(a1-6)]Man(b1-4)GlcNAc(b1-4)GlcNAc
How it was run: as §1

[26] = target: Neu5Ac(a2-3)Gal(b1-3)GlcNAc(b1-3)Gal(b1-3)GlcNAc
How it was run: as §1

[27] = target: Neu5Ac(a2-3)Gal(b1-3)GlcNAc(b1-3)Gal(b1-4)GlcNAc
How it was run: as §1

[28] = target: Neu5Ac(a2-3)Gal(b1-3)GlcNAc(b1-3)GalNAc
How it was run: as §1

[29] = target: Neu5Ac(a2-3)Gal(b1-3)GlcNAc(b1-4)Gal(b1-4)Glc
How it was run: as §1

[30] = target: Neu5Ac(a2-3)Gal(b1-3)GlcNAc(b1-6)GalNAc
How it was run: as §1

B1: CvGal2 (Crassostrea virginica) (protein)
chain: MGSSHHHHHHSSGLVPRGSHMRIREAGKRKDTTKVYQIPDGLFPGQQVMLRGRVPWGSKSFSINFSATPRMGEGDILFHLNPRPSEGVCIRNALLNGSWGAEEKWQPYFPFDDGRSFSVKIEVTNDAFRTFVNGRPFVDFLHRTDFRAGKYLTLREGAEYYDVIFQSKPNIPLTTAIHNGMRIGKTIRIRGMCTAQDGFAINFNDNRNNIYFHFNARPAQRTVVRNSYFGSWGNEETAISKEFPFYPFLYFYASFVCMEDKFAVYVNDEHFIDFAHRGNPNNISVLQIKGSVNVLDTECLEPMGEDAMTEVDSGLENGDLFVLNGLMTERGKTFAVNFLNGFTENDDIALHFNPRKSTGEVVLNSRYGGAWQSEEKVALPGVFWSNRPLQVKVETKRNKFKIYVNGVDLAKYKIRGNVEDVHAVQVKGDVFLLETLLLKRLMKPVWERLTGGIRPGTWVTLQGTPKKNWQQFVVNFALDDTLDGDIAFHFNVRRGARQVVRNHRQSGAWGREETVTPFFAFDSEATFEIVFFVKEEKFLIYFNGKLFFEFVHRVPVERITHIYMDGDCNFYEPEVVI
Q: Which results are given for B1?
A: glycan array binding signal (z-score) [1]: -0.336; glycan array binding signal (z-score) [2]: -0.338; glycan array binding signal (z-score) [3]: -0.332; glycan array binding signal (z-score) [4]: -0.344; glycan array binding signal (z-score) [5]: -0.343; glycan array binding signal (z-score) [6]: -0.282; glycan array binding signal (z-score) [7]: -0.334; glycan array binding signal (z-score) [8]: -0.332; glycan array binding signal (z-score) [9]: -0.325; glycan array binding signal (z-score) [10]: -0.333; glycan array binding signal (z-score) [11]: -0.336; glycan array binding signal (z-score) [12]: -0.343; glycan array binding signal (z-score) [13]: -0.318; glycan array binding signal (z-score) [14]: -0.333; glycan array binding signal (z-score) [15]: -0.329; glycan array binding signal (z-score) [16]: -0.329; glycan array binding signal (z-score) [17]: -0.335; glycan array binding signal (z-score) [18]: -0.245; glycan array binding signal (z-score) [19]: -0.328; glycan array binding signal (z-score) [20]: -0.333; glycan array binding signal (z-score) [21]: -0.331; glycan array binding signal (z-score) [22]: -0.343; glycan array binding signal (z-score) [23]: -0.347; glycan array binding signal (z-score) [24]: -0.325; glycan array binding signal (z-score) [25]: -0.338; glycan array binding signal (z-score) [26]: 0.37; glycan array binding signal (z-score) [27]: -0.259; glycan array binding signal (z-score) [28]: -0.331; glycan array binding signal (z-score) [29]: -0.336; glycan array binding signal (z-score) [30]: -0.328
